Several values for one entry are separate records, joined by “and”; a condition that tells them apart may be missing. Equal values may be shown once. Screen size: about 50,000 compounds; about 800 (1.6%) showed an effect of 50% or more. This is one part of the list.

This test concerns the target Bcl-2-like protein 10 (Homo sapiens) (UniProt Q9HD36). Nature of the test: TR3 peptide-Bcl-B binding displacers, biochemical primary FP assay, phenotype converters (AID 1240).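 Note: 0% = Bcl-B with tracer peptide and DMSO and 100% = tracer peptide lacking Bcl-B.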 Particulars: GST-Bcl-B / FITC-TR3 peptide fluorescence polarization; stronger effect = higher value; compound at 3.75 mg/L. A general note: In fluorescence polarisation assays a small probe gives low polarisation when free and higher when bound to something large.
UniProt Q9HD36, sequence (Q9HD36 whole entry, looked up): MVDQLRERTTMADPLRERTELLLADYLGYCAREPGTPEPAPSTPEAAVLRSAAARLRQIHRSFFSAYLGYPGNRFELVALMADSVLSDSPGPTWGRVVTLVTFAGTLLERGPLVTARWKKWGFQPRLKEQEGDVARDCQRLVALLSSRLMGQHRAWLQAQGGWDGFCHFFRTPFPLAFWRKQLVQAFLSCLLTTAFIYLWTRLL
With `COC(=O)CN1C(=O)/C(=C/c2ccc(OCc3ccc(Cl)cc3)c(OC)c2)SC1=S`, the displacement was found to be 87.2%. As for `CCOC(=O)c1c(NC(=O)C2COc3ccccc3O2)sc2c1CCC(C)C2` (configuration not stated), the displacement was 5%.

Turning to `CN1C(=O)/C(=C2\SC(=Nc3ccc(F)cc3)NC2=O)c2ccccc21`, the displacement was found to be 17.8%. Consider `CCOc1ccc(-c2csc(-c3cc4ccccc4oc3=O)n2)cc1`, for which the displacement is -2.8%. As to `CC1CCCC(C)C1NC1=C(Cl)C(=O)c2ccccc2C1=O` (configuration not stated), the displacement amounted to 9.6%.

As to `CCN(CC)C(=O)CSc1nc(O)c(Cc2ccccc2)c(=O)n1-c1ccc(OC)cc1`, the displacement worked out at 8.7%. `Cc1ccc(C2CC(C(F)(F)F)n3nc(C(=O)N4CCN(c5ccc(F)cc5)CC4)c(Cl)c3N2)cc1` (configuration not stated): the displacement worked out at 0.7%.

As to `Cc1cc(C)cc(NC(=O)CN(c2ccc(Cl)cc2)S(C)(=O)=O)c1`, the displacement came to 7.8%. In the case of `CC(C)(C)c1ccc(OC(=O)c2cccs2)cc1`, the displacement was -8.4%. `CC1CN(C2CCCCC2)CCC1(O)c1ccccc1` (configuration not stated): the displacement was -8.9%. Consider `Cc1cc(=O)n2cc(Br)ccc2n1`, for which the displacement was 0.1%. As for `CCOc1cccc(C(=O)Nc2cc3nn(-c4ccc(C)cc4)nc3cc2C)c1`, the displacement amounted to 13.2%. Regarding `Cc1ccc(NC(=O)c2nc[nH]c2C(=O)N2CCCCC2)c(C(=O)c2ccccc2)c1`, the displacement was -6.4%. As to `O=C(Nc1cc(C(=O)Nc2ccc(Cl)cc2)cc(C(=O)Nc2ccc(Cl)cc2)c1)c1ccc([N+](=O)[O-])cc1`, the displacement came to 3.3%. Consider `CCOC(=O)CSc1nc2sc3c(c2c(=O)n1-c1ccccc1)CCCCC3`, for which the displacement was -2.7%. Consider `COc1ccc(Br)cc1/C=C/C(=O)Nc1ccc(Cl)cn1`, for which the displacement came out at 13.4%. `CC(C)c1ccc(NC(=O)c2cccc(F)c2)cc1`: the displacement was -4.5%. Take `O=S1(=O)N=C(SCCO)c2ccccc21`: the displacement is -0.3%. In the case of `NC(=O)CN1C(=O)/C(=C2\SC(=S)N(Cc3ccccc3)C2=O)c2ccccc21`, the displacement amounted to 8.3%. `COc1cccc(N(CC(=O)Nc2ccc3ccccc3c2)S(=O)(=O)c2ccccc2)c1`: the displacement was -5.8%. With `COc1cc(C=Nc2ccc(Oc3ccc(N=Cc4ccc(O)c(OC)c4)cc3)cc2)ccc1O`, the displacement is -4.1%. Take `COc1cccc(C2/C(=C(\O)c3ccccc3)C(=O)C(=O)N2Cc2cccnc2)c1` (configuration not stated): the displacement amounted to 8.1%. As to `O=C1OC(c2ccccc2F)=N/C1=C\c1ccccc1[N+](=O)[O-]`, the displacement stood at 4.1%. As to `CCc1nc2c(c(=O)[nH]1)C1(CCCC1)Cc1ccccc1-2`, the displacement is -9.9%.

As to `Cc1ccc(/C=C/C(=O)NCCc2ccccc2)o1`, the displacement came out at 22%.

Consider `O=C(c1ccc(N2CCN(C(=O)c3ccccc3)CC2)cc1)c1cccc(F)c1`, for which the displacement was -11.7%. In the case of `COc1ccc(OC)c(/C=C2\C(=O)NN(c3ccccc3)C2=O)c1`, the displacement is 11.5% and 10%.

As to `CCOc1ccccc1NC(=O)c1c(NC(=O)c2ccccc2)sc2c1CCC(C)C2` (configuration not stated), the displacement was -7.2%. `CN(C)CCCOC(=O)c1ccccc1`: the displacement is 11.2%. On to `Cc1cccc(N(CC(=O)NCCSc2nc3ccccc3s2)S(=O)(=O)c2ccccc2)c1`, for which the displacement amounted to 9.1%. With `COc1cccc(N2C(=O)C(=O)/C(=C(\O)c3ccccc3)C2c2ccc(O)c(OC)c2)c1` (configuration not stated), the displacement was found to be 10.1%.

Take `COC(=O)C1=C(C(=O)OC)SC(=C2C(=S)C(C)(C)N(C(=O)c3cccc([N+](=O)[O-])c3)c3ccc(OC)cc32)S1`: the displacement was -4.6%. As for `COC(=O)c1cc(NC(=O)C2CCCC2)cc(C(=O)OC)c1`, the displacement was -10.4%. Take `Cc1ccc(S(=O)(=O)Nc2ccccc2C(=O)NCc2ccco2)cc1`: the displacement was 9.3%.

As to `CC(=O)C1=C(O)C(=O)N(CCN(C)C)C1c1ccc(O)cc1` (configuration not stated), the displacement is -4.8%. For the compound `CCCn1nc(CC(=O)O)c2ccccc2c1=O`, the displacement came to 4.4%. `O=C(Nc1ncc(Cc2ccc(Cl)c(Cl)c2)s1)c1cccc([N+](=O)[O-])c1`: the displacement came to 5.9%. Regarding `Cc1cccc(C(=O)N2N=C(c3ccc(Cl)cc3)CC2(O)C(F)(F)F)c1O` (configuration not stated), the displacement was 4.8%. Consider `CC1=C(C(=O)OCc2ccccc2)C(c2ccc([N+](=O)[O-])cc2)C2=C(CC(C)(C)CC2=O)N1` (configuration not stated), for which the displacement was -4.7%. `COc1ccc(CCN2C(=O)CC(Cc3ccc(Cl)cc3)C2=O)cc1OC` (configuration not stated): the displacement was -19.7%. Regarding `COc1cccc(NC(=O)CN(c2ccc(Br)cc2)S(C)(=O)=O)c1`, the displacement amounted to 3.1%. As to `COc1cc(/C=C2/C(=O)NN(c3ccc(Br)cc3)C2=O)c([N+](=O)[O-])cc1OC`, the displacement was determined as 14.7%.

For the compound `O=C1C2C3C=CC(C3)C2C(=O)N1Nc1ccccc1` (configuration not stated), the displacement was -0.8%. As for `COC(=O)c1cccc(NC(=O)CCOc2ccccc2)c1`, the figure is 18.5%; as for `CCn1c(C)nc2c(CN(C)C)c(O)ccc21`, -16.2%; as for `O=C(COc1ccccc1Cl)NNC(=O)c1ccncc1`, -9.4%. The same measure for `NC(=O)C1CCN(S(=O)(=O)c2ccc([N+](=O)[O-])cc2)CC1`: -3.8%; for `CC(=O)Nc1ccc(S(=O)(=O)Nc2cccc(-c3nc4ccccc4[nH]3)c2)cc1`: 2%; for `Cc1cc(/C=C2/NC(=O)NC2=O)c(C)n1-c1ccc(C(C)(C)C)cc1`: 10.4%. Turning to `CCOc1ccc2c(=O)c(Oc3ccc(OC)cc3)c(C(F)(F)F)oc2c1`, the displacement was 10.5%. The same measure for `NC1=NC(=O)/C(=C\c2ccc(-c3ccccc3Cl)o2)S1`: 10.4%. As for `N#Cc1c2n(c3c(=O)n(CC(=O)c4ccccc4)cnc13)CCCCC2`, the figure is 0.3%; as for `O=C(O)CCC(=O)N(CCc1ccccc1)C1CC(=O)N(c2ccc(Br)cc2)C1=O` (configuration not stated), -10.1%; as for `Cc1ccc(NC(=O)CN2CCOCC2)c(C(=O)c2ccccc2)c1`, 14.6%. In the case of `O=C(COc1ccccc1)Nc1ccc([N+](=O)[O-])cc1`, the displacement is 14.1%. As to `COc1ccc(C(=O)Nc2ccc3nn(-c4ccc(F)cc4)nc3c2)cc1Br`, the displacement was -0.2%.

As for `O=C(Cc1ccc(Cl)cc1)NNC(=O)c1ccco1`, the displacement was 2.8%. As for `O=[N+]([O-])c1cc(Br)c2nsnc2c1N1CCOCC1`, the displacement turned out to be 5.9%. Take `O=C(CSc1nc(O)cc(=O)[nH]1)c1ccc(O)cc1O`: the displacement was determined as 3.2%.

`Cc1ccc[n+](CC(=O)c2cc3ccccc3oc2=O)c1`: the displacement was 7.9%. On to `O=C(/C=C/c1cccc(C(F)(F)F)c1)Nc1ccc(F)cc1`, for which the displacement was 14.9%. The same measure for `COc1ccc(N2C(=O)/C(=C/c3ccc(-c4ccc([N+](=O)[O-])c(C)c4)o3)SC2=S)cc1`: 3.3%.

In the case of `O=C(Nc1cccc(Cl)c1)N(c1ccccn1)c1ccccn1`, the displacement came to 2.4%.

On to `CN1C(=O)N(C)C2(c3ccccc3)N(C)C(=O)N(C)C12c1ccccc1` (configuration not stated), for which the displacement is -4.8%. The same measure for `Cn1c(/C=C/c2ccc(Br)cc2)nc2ccccc2c1=O`: -5.9%; for `CCOC(=O)N=Nc1c(O)[nH]c2ccc(OC)cc12`: -3.6%; for `CCc1nc(C)cn1S(=O)(=O)c1ccc(Cl)c([N+](=O)[O-])c1`: 16.9%.

The record behind these values is PubChem BioAssay AID1240 (Sanford-Burnham Center for Chemical Genomics, 2008).
